Results published in the supplement of paper PMC8728848.
The list shows a part of the results.

Experiments:
Assay in all cases: glycan array binding signal (z-score within array); higher = stronger binding
Conditions in all cases: glycan notation: IUPAC condensed, linker removed
[1] = biological target: Fuc(a1-2)[GalNAc(a1-3)]Gal(b1-4)Glc
Method in brief: (§1)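 Columns mapping to the same glycan were averaged after glycan names were converted to IUPAC-condensed notation. The data come from 3228 arrays in the Consortium for Functional Glycomics database, limited to those with an available protein sequence. Binding is reported as a within-array Z-score averaged across arrays of one protein sequence and across linkers.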

[2] = biological target: Fuc(a1-2)[GalNAc(a1-3)]Gal(b1-4)GlcNAc
Method in brief: as §1

[3] = biological target: Fuc(a1-2)[GalNAc(a1-3)]Gal(b1-4)GlcNAc(b1-2)Man(a1-3)[Fuc(a1-2)[GalNAc(a1-3)]Gal(b1-4)GlcNAc(b1-2)Man(a1-6)]Man(b1-4)GlcNAc(b1-4)GlcNAc
Method in brief: as §1

[4] = biological target: Fuc(a1-2)[GalNAc(a1-3)]Gal(b1-4)GlcNAc(b1-2)Man(a1-3)[Fuc(a1-2)[GalNAc(a1-3)]Gal(b1-4)GlcNAc(b1-2)Man(a1-6)]Man(b1-4)GlcNAc(b1-4)[Fuc(a1-6)]GlcNAc
Method in brief: as §1

[5] = biological target: Fuc(a1-2)[GalNAc(a1-3)]Gal(b1-4)GlcNAc(b1-3)Gal(b1-4)GlcNAc
Method in brief: as §1

[6] = biological target: Fuc(a1-2)[GalNAc(a1-3)]Gal(b1-4)GlcNAc(b1-3)Gal(b1-4)GlcNAc(b1-3)Gal(b1-4)GlcNAc
Method in brief: as §1

[7] = biological target: Fuc(a1-2)[GalNAc(a1-3)]Gal(b1-4)GlcNAc(b1-3)GalNAc
Method in brief: as §1

[8] = biological target: Fuc(a1-2)[GalNAc(a1-3)]Gal(b1-4)[Fuc(a1-3)]GlcNAc
Method in brief: as §1

[9] = biological target: Fuc(a1-2)[GalNAc(a1-3)]Gal(b1-4)[Fuc(a1-3)]GlcNAc(b1-3)GalNAc
Method in brief: as §1

[10] = biological target: Fuc(a1-2)[GalNAc(a1-4)]Gal(b1-4)GlcNAc
Method in brief: as §1

[11] = biological target: Fuc(a1-2)[GalNAc(b1-3)]Gal
Method in brief: as §1

[12] = biological target: Fuc(a1-3)GlcNAc
Method in brief: as §1

[13] = biological target: Fuc(a1-3)[Gal(b1-4)]Glc6S
Method in brief: as §1

[14] = biological target: Fuc(a1-3)[Gal(b1-4)]GlcNAc
Method in brief: as §1

[15] = biological target: Fuc(a1-3)[Gal(b1-4)]GlcNAc(b1-2)Man(a1-3)[Fuc(a1-3)[Gal(b1-4)]GlcNAc(b1-2)Man(a1-6)]Man(b1-4)GlcNAc(b1-4)GlcNAc
Method in brief: as §1

[16] = biological target: Fuc(a1-3)[Gal(b1-4)]GlcNAc(b1-2)Man(a1-3)[Fuc(a1-3)[Gal(b1-4)]GlcNAc(b1-2)Man(a1-6)]Man(b1-4)GlcNAc(b1-4)[Fuc(a1-6)]GlcNAc
Method in brief: as §1

[17] = biological target: Fuc(a1-3)[Gal(b1-4)]GlcNAc(b1-3)Gal(b1-3)[Fuc(a1-4)]GlcNAc
Method in brief: as §1

[18] = biological target: Fuc(a1-3)[Gal(b1-4)]GlcNAc(b1-3)GalNAc
Method in brief: as §1

[19] = biological target: Fuc(a1-3)[Gal(b1-4)]GlcNAc(b1-4)Gal(b1-4)[Fuc(a1-3)]GlcNAc
Method in brief: as §1

[20] = biological target: Fuc(a1-3)[Gal(b1-4)]GlcNAc(b1-4)Gal(b1-4)[Fuc(a1-3)]GlcNAc(b1-4)Gal(b1-4)[Fuc(a1-3)]GlcNAc
Method in brief: as §1

[21] = biological target: Fuc(a1-3)[Gal(b1-4)]GlcNAc(b1-6)GalNAc
Method in brief: as §1

[22] = biological target: Fuc(a1-3)[Gal(b1-4)]GlcNAc(b1-6)[Gal(b1-3)GlcNAc(b1-3)]Gal(b1-4)Glc
Method in brief: as §1

[23] = biological target: Fuc(a1-3)[Gal(b1-4)]GlcNAc(b1-6)[Neu5Ac(a2-3)Gal(b1-3)]GalNAc
Method in brief: as §1

[24] = biological target: Fuc(a1-3)[Gal(b1-4)]GlcNAc6S
Method in brief: as §1

[25] = biological target: Fuc(a1-3)[Gal3S(b1-4)]GlcNAc
Method in brief: as §1

[26] = biological target: Fuc(a1-3)[Gal3S(b1-4)]GlcNAc6S
Method in brief: as §1

[27] = biological target: Fuc(a1-3)[GalNAc(b1-4)]GlcNAc
Method in brief: as §1

[28] = biological target: Fuc(a1-4)GlcNAc
Method in brief: as §1

[29] = biological target: Fuc(b1-3)GlcNAc
Method in brief: as §1

[30] = biological target: Gal(a1-2)Gal
Method in brief: as §1

[31] = biological target: Gal(a1-3)Gal
Method in brief: as §1

[32] = biological target: Gal(a1-3)Gal(b1-3)GlcNAc
Method in brief: as §1

[33] = biological target: Gal(a1-3)Gal(b1-3)GlcNAc(b1-2)Man(a1-3)[Gal(a1-3)Gal(b1-3)GlcNAc(b1-2)Man(a1-6)]Man(b1-4)GlcNAc(b1-4)GlcNAc
Method in brief: as §1

[34] = biological target: Gal(a1-3)Gal(b1-3)GlcNAc(b1-3)GalNAc
Method in brief: as §1

[35] = biological target: Gal(a1-3)Gal(b1-3)[Fuc(a1-4)]GlcNAc(b1-2)Man(a1-3)[Gal(a1-3)Gal(b1-3)[Fuc(a1-4)]GlcNAc(b1-2)Man(a1-6)]Man(b1-4)GlcNAc(b1-4)GlcNAc
Method in brief: as §1

[36] = biological target: Gal(a1-3)Gal(b1-4)Glc
Method in brief: as §1

[37] = biological target: Gal(a1-3)Gal(b1-4)GlcNAc
Method in brief: as §1

[38] = biological target: Gal(a1-3)Gal(b1-4)GlcNAc(b1-3)GalNAc
Method in brief: as §1

[39] = biological target: Gal(a1-3)Gal(b1-4)[Fuc(a1-3)]GlcNAc
Method in brief: as §1

[40] = biological target: Gal(a1-3)Gal(b1-4)[Fuc(a1-3)]GlcNAc(b1-2)Man(a1-3)[Gal(a1-3)Gal(b1-4)[Fuc(a1-3)]GlcNAc(b1-2)Man(a1-6)]Man(b1-4)GlcNAc(b1-4)GlcNAc
Method in brief: as §1

[41] = biological target: Gal(a1-3)GalNAc
Method in brief: as §1

[42] = biological target: Gal(a1-3)[Gal(a1-4)]Gal(b1-4)GlcNAc
Method in brief: as §1

[43] = biological target: Gal(a1-4)Gal(b1-3)GlcNAc(b1-2)Man(a1-3)[Gal(a1-4)Gal(b1-3)GlcNAc(b1-2)Man(a1-6)]Man(b1-4)GlcNAc(b1-4)GlcNAc
Method in brief: as §1

[44] = biological target: Gal(a1-4)Gal(b1-4)Glc
Method in brief: as §1

[45] = biological target: Gal(a1-4)Gal(b1-4)GlcNAc
Method in brief: as §1

B1: GNAT (Pseudomonas aeruginosa), Q9HV14 (protein)
chain: MQLSHRPAETGDLETVAGFPQDRDELFYCYPKAIWPFSVAQLAAAIAERRGSTVAVHDGQVLGFANFYQWQHGDFCALGNMMVAPAARGLGVARYLIGVMENLAREQYKARLMKISCFNANAAGLLLYTQLGYQPRAIAERHDPDGRRVALIQMDKPLEP
[1]
  glycan array binding signal (z-score): -0.404
[2]
  glycan array binding signal (z-score): -0.45
[3]
  glycan array binding signal (z-score): -0.3
[4]
  glycan array binding signal (z-score): -0.438
[5]
  glycan array binding signal (z-score): -0.143
[6]
  glycan array binding signal (z-score): -0.156
[7]
  glycan array binding signal (z-score): -0.389
[8]
  glycan array binding signal (z-score): 0.793
[9]
  glycan array binding signal (z-score): 4.86
[10]
  glycan array binding signal (z-score): -0.464
[11]
  glycan array binding signal (z-score): -0.347
[12]
  glycan array binding signal (z-score): -0.397
[13]
  glycan array binding signal (z-score): -0.02
[14]
  glycan array binding signal (z-score): -0.389
[15]
  glycan array binding signal (z-score): -0.279
[16]
  glycan array binding signal (z-score): 1.09
[17]
  glycan array binding signal (z-score): -0.27
[18]
  glycan array binding signal (z-score): 2.09
[19]
  glycan array binding signal (z-score): -0.155
[20]
  glycan array binding signal (z-score): -0.48
[21]
  glycan array binding signal (z-score): 5.07
[22]
  glycan array binding signal (z-score): -0.3
[23]
  glycan array binding signal (z-score): 1.49
[24]
  glycan array binding signal (z-score): -0.123
[25]
  glycan array binding signal (z-score): -0.328
[26]
  glycan array binding signal (z-score): 0.423
[27]
  glycan array binding signal (z-score): -0.408
[28]
  glycan array binding signal (z-score): -0.508
[29]
  glycan array binding signal (z-score): -0.481
[30]
  glycan array binding signal (z-score): -0.302
[31]
  glycan array binding signal (z-score): -0.415
[32]
  glycan array binding signal (z-score): -0.371
[33]
  glycan array binding signal (z-score): 2.69
[34]
  glycan array binding signal (z-score): -0.26
[35]
  glycan array binding signal (z-score): 0.451
[36]
  glycan array binding signal (z-score): -0.248
[37]
  glycan array binding signal (z-score): -0.174
[38]
  glycan array binding signal (z-score): -0.128
[39]
  glycan array binding signal (z-score): 0.224
[40]
  glycan array binding signal (z-score): 4.4
[41]
  glycan array binding signal (z-score): -0.372
[42]
  glycan array binding signal (z-score): -0.167
[43]
  glycan array binding signal (z-score): 1.08
[44]
  glycan array binding signal (z-score): 1.23
[45]
  glycan array binding signal (z-score): -0.159
